Here are results for 22 molecules from paper PMC12136788.

The list shows a part of the results.

First the molecules themselves.
B1: ENSG00000198589:be:win_1651|CDS|ENSG00000198589|bound_else_gene|NA|bound_elsewhere_windowed (ssRNA)
RNA: GGGAGUUCUACAGUCCGACGAUCUUUUCAAAAUAUCUGAGUAAUCUGCAGAAUGGGAUGCCCCUGCUCAAGCAAUUGUGUGAUCACGUUCUUCUUAAUCCUGCCAUAUGGAUUCAUACCCCAGCCAAGGUUCAACUGAUGCUCCAACAGAGGAUUGAGCAUCA
B2: chr9:35091239:35092767:-|three_prime_utr|ENSG00000165282|control|control|control (ssRNA)
RNA: GGGAGUUCUACAGUCCGACGAUCAGGCUUUCCAUUCUGCCCUCUACUCCUGACACCUGUGGCCUGGGGCCUGGUUGGGGCCAUAGCGUAUGCUGGACUCCUGGGAACUAUUGAGCUGAAGCUAGAUCUAGUGCUUCUAGGGGCCAACAGAGGAUUGAGCAUCA
B3: ENSG00000146216:stop:overlap|stop_codon|ENSG00000146216|stop_codon|NA|stop_codon (ssRNA)
RNA: GGGAGUUCUACAGUCCGACGAUCUGCUCCGCAUCUCGCGGUCCCAGCUGCAGCAGGUGUGGGCCCGGUUCACCCACAAGACCUAGGCUGGGCCCCCCCCCUCCUGGAGGGGGCAGGUGGGGGGGGGUGGGGAGCAGGCAGAGGCAACAGAGGAUUGAGCAUCA
B4: chr10:59791032:59791133:-|3pUTR|ENSG00000108091|msi1|total|mutant (ssRNA)
RNA: GGGAGUUCUACAGUCCGACGAUCUAAUCAUAAUACAGUUCUCAGAUGCAGGGAAGAAGUUUGGCAUUUAAUCAUUGAGGCUUCCGGUUUUUGAUGUGAUCAGACUGGGCCAUGUCAAACCCGGAAUUUUCACCAACAGUUCACCAACAGAGGAUUGAGCAUCA
B5: chr8:100258838:100258944:-|CDS|ENSG00000034677|unk|total|mutant (ssRNA)
RNA: GGGAGUUCUACAGUCCGACGAUCAGUGAAUUUGAGGCUCCAUCCCUCAGUGACAGUAUGCCUUCUGCCGCAGAUUCUCACUCCCGUCAUUUUUCUGAAUUCCGUUGUUCUGACCCCGAAAGCAUGAAAACUUCUUGCCGUCAUCAACAGAGGAUUGAGCAUCA
B6: ENSG00000117298:stop:overlap|stop_codon|ENSG00000117298|stop_codon|NA|stop_codon (ssRNA)
RNA: GGGAGUUCUACAGUCCGACGAUCAGGAGACAGGAACCCGAGAAGUAGCUGAAGCAGAAGCCAGCCGCAGUCCCCUUGCCACAUAGAGGCGGGCUUCUCCCAGCCAUGGUGUCCCCUCUGCCUCCCCUCCCCCGACCCUCCUGCCAACAGAGGAUUGAGCAUCA
B7: ENSG00000136271:stop:overlap|stop_codon|ENSG00000136271|stop_codon|NA|stop_codon (ssRNA)
RNA: GGGAGUUCUACAGUCCGACGAUCCUGUGCUCAACUUUGAUCUUCCCCCAACCCCUGAGGCCUACAUCCAUCGAGCUGGCAGGUAGUAGUGUGACGGCCCAGGCAUCUGCAUGGACAGCACGCGCUAACAACCCAGGCAUAGUCCAACAGAGGAUUGAGCAUCA
B8: chr20:7982266:7982367:-|CDS|ENSG00000125827|msi1|FALSE|bound_elsewhere (ssRNA)
RNA: GGGAGUUCUACAGUCCGACGAUCGAGAAGUGAGGCCAAUGAUCAGGGGCCCCCAGGAGAGGACGGUGUGACCCGGGAGGAAGUAGAGCCUGAGGAGGCUGAAGAAGGCAUCUCUGAGCAACCCUGCCCAGCUGACACAGAGGUCAACAGAGGAUUGAGCAUCA
B9: chr5:138873012:138874556:-|CDS|ENSG00000146006|control|control|control (ssRNA)
RNA: GGGAGUUCUACAGUCCGACGAUCUUUAUUAUUUUUAUAGUGUUCAUCUCCAGGAAGUGCUGCCCUCCCACUUUAAGAAGAAUUAGGCAGUGCUCAAUGGUUCAGAACCACAGGCAGCUCCGAUCCCAAACACGACUCCAUAUGCAACAGAGGAUUGAGCAUCA
B10: chr17:7460970:7461071:-|3pUTR|ENSG00000174282|msi1|FALSE|unique (ssRNA)
RNA: GGGAGUUCUACAGUCCGACGAUCGGAUGGAGAAGGGAAUCUACUUUCUCCCUGUUUUUUUUUCCUGAUGGUUUCUCCCAGACUAGACCAAAUAGCCAGAAAAAUGAUAGGGGUCGGAUGGGUGGGUAAGCCCAGGAUUUGCACCAACAGAGGAUUGAGCAUCA
B11: chr12:49127802:49127903:-|3pUTR|ENSG00000123416|msi1_unk|total|mutant (ssRNA)
RNA: GGGAGUUCUACAGUCCGACGAUCAUGUCAUGCUCCCAGAAUUUCAGCUUCAGCUUAACUGACAGACGUUAAAGCUUUCUGGUCCGAUUGUUUUCACUUGGUGAUCAUGUCUUUUCCAUGUGUACCUGUAAUAUUUUUCCAUCACAACAGAGGAUUGAGCAUCA
B12: chr2:108783740:108783841:+|CDS_3pUTR|ENSG00000153201|msi1_unk|FALSE|overlapping (ssRNA)
RNA: GGGAGUUCUACAGUCCGACGAUCCAAUAAUUCUCAAUUUGUUAUAACACUGAAGAAAGCAGAACAUUUGGACUUUAAGCAUGUAGUAUUUGGGUUUGUUAAGGAUGGCAUGGAUACUGUGAAAAAGAUUGAAUCAUUUGGUUCCAACAGAGGAUUGAGCAUCA
B13: chr7:47276374:47276475:-|3pUTR|ENSG00000136205|msi1|FALSE|unique (ssRNA)
RNA: GGGAGUUCUACAGUCCGACGAUCCUGGGGUUUGGGAAUGUGCUUUGUGAACUCUGCUUUAAAGUGAGGGGCCGAGGAAAACUUAGAAACAGGCAGAGUUGGAAGCAGCCAAAUCACAGUGGGUGUUGUGUGUGUGUGCGUGUGCAACAGAGGAUUGAGCAUCA
B14: chr17:21001410:21001511:-|3pUTR|ENSG00000124422|msi1_unk|total|mutant (ssRNA)
RNA: GGGAGUUCUACAGUCCGACGAUCCCGUACAACUUUCCGACACAGAAAUCUGAAUGACAUAUAUUGUUCUGUGUCAAGAAACUCCGAUUUUUUUUUUAACUAUUUAAAAACGUGAAACCUAUUCUCCGCUCACAGGCCAUGGAGCAACAGAGGAUUGAGCAUCA
B15: ENSG00000198589:be:win_4351|CDS|ENSG00000198589|bound_else_gene|NA|bound_elsewhere_windowed (ssRNA)
RNA: GGGAGUUCUACAGUCCGACGAUCGCAGUAAGGAAUUGCUUGGAGUGUCAACAGCAUUCACAACUGAAAACUAGGGGAGAUAAAGCCUUGAAACCAAUGCAUAGCCUUAUUCCUUUAGGGAAAUCUGCAGCGAAGAGCCCAGUGCAACAGAGGAUUGAGCAUCA
B16: chr20:4700211:4700532:+|3pUTR|ENSG00000171867|msi1|total|mutant (ssRNA)
RNA: GGGAGUUCUACAGUCCGACGAUCUUGCCUGGAUACCUCUGGCUCCUUCAGCAGCCCGAGCUCAGUAUACUAAUGCCCUAUCUCCGCCGAGAUUUCACCGCUAUUCCGAGAUAUUUUCCAUUUUAAGAAAACCCGACAACAUUUCAACAGAGGAUUGAGCAUCA
B17: ENSG00000107863:be:win_5801|CDS_3pUTR|ENSG00000107863|bound_else_gene|NA|bound_elsewhere_windowed (ssRNA)
RNA: GGGAGUUCUACAGUCCGACGAUCGUUCUGCAGCGAAUGCCCAACCUCAUAAACUGUCUGAAACCCCAGGCAGUAAAGCAGAGUUUCAUCCCUGUCUUUAAACUGGGGGUAUGUCCACUCUAGCAAGUAAAAAAACUACUGUUACAACAGAGGAUUGAGCAUCA
B18: chr6:149379354:149379455:+|CDS|ENSG00000055208|msi1|FALSE|bound_elsewhere (ssRNA)
RNA: GGGAGUUCUACAGUCCGACGAUCAGGGGUGGUGUCCCCUACCUUUGAACUUACAAAUCUUCUUAAUCAUCCUGAUCAUUAUGUAGAAACCGAGAAUAUUCAGCACCUCACGGACCCUACAUUAGCACAUGUGGAUAGAAUAAGCAACAGAGGAUUGAGCAUCA
B19: chr6:119178661:119178762:-|3pUTR|ENSG00000111885|msi1|total|mutant (ssRNA)
RNA: GGGAGUUCUACAGUCCGACGAUCGAAAGAAGCUUUGCCAAUUUUACUUAUUCGUGAUCAAUCAAGGAAAAUCUAAUAAAUUUCCGGCCAAAUAAGAAUACCGCAUAUUCCGUAUGGUUACCGUCAACACAGAGAUCACAACUUCAACAGAGGAUUGAGCAUCA
B20: chr7:138706293:138706717:-|three_prime_utr|ENSG00000105929|control|control|control (ssRNA)
RNA: GGGAGUUCUACAGUCCGACGAUCAUGGUUACAAGUUUUCUCCAUUCUCCUUUAAACACAUCCUGGAUGGCACAGCCGAGGAGUAGGCUGAGGGCUGCACCUCCCACGGUGGUCACCAUGCCAAUGAAGGAAGUUCAGUCUUGUCAACAGAGGAUUGAGCAUCA
B21: ENSG00000124766:be:win_3001|3pUTR|ENSG00000124766|bound_else_gene|NA|bound_elsewhere_windowed (ssRNA)
RNA: GGGAGUUCUACAGUCCGACGAUCUUUUUUUGGUAGUUGUUGUUACCCACGCCAUUUUACGUCUCCUUCACUGAAGGGCUAGAGUUUUAACUUUUAAUUUUUUAUAUUUAAAUGUAGACUUUUGACACUUUUAAAAAACAAAAACAACAGAGGAUUGAGCAUCA
B22: ENSG00000100154:stop:overlap|stop_codon|ENSG00000100154|stop_codon|NA|stop_codon (ssRNA)
RNA: GGGAGUUCUACAGUCCGACGAUCAGCCAGUGAAGGCAGGUGACACUUACCUCCACCAGGUGAUGCAGGCUGUGGUGAUAAACUAGAGUGUGAAGAGCUCAGAGUGCAGCCUCUGGCCUUGCCACUCACAAGCUGUAGGACACUCAACAGAGGAUUGAGCAUCA

This assay has as its target MSI1 full-length (mouse, UniProt Q61474 1-362). The assay is described as follows: nsRBNS (natural sequence RNA bind-n-seq); RBNS binding buffer (assumed for nsRBNS): 25 mM Tris pH 7.5, 150 mM KCl, 3 mM MgCl2, 0.01% Triton X-100, 500 ug/ml BSA, 20 U/ml SUPERase-In, 4 C; UNK is unkempt and MSI1 is Musashi-1; names of the RNAs are library labels; protein concentration not given here; high values mean tight binding.
Sequence of UniProt Q61474 (Q61474 whole entry): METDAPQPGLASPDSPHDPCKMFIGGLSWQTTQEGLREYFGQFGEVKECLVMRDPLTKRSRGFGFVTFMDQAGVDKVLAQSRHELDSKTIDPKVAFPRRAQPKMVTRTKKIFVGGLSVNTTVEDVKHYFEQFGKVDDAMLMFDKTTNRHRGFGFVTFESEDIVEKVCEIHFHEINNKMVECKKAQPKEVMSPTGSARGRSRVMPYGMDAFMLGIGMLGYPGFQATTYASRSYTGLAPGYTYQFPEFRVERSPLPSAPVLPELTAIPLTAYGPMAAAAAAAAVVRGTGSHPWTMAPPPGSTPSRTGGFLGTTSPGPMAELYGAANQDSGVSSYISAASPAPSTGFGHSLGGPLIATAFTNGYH
With B1, the binding signal came out at 0.323 enrichment R. The figure for B2 is 1.5 enrichment R; for B3 it is 0.353 enrichment R; for B4 it is 0.459 enrichment R. The result for B5 reads 0.396 enrichment R; that for B6, 0.606 enrichment R. The figure for B7 is 0.299 enrichment R.

B8 showed a binding signal of 0.527 enrichment R. B9 returned a binding signal of 1.88 enrichment R. The result for B10 reads 2.29 enrichment R; that for B11, 0.704 enrichment R. B12: the binding signal came out at 0.864 enrichment R. B13 gave a binding signal of 0.889 enrichment R. The figure for B14 is 0.44 enrichment R; for B15 it is 0.59 enrichment R. Molecule B16 yielded a binding signal of 0.588 enrichment R. The figure for B17 is 0.416 enrichment R. Molecule B18 came in with a binding signal of 1.1 enrichment R. B19 returned a binding signal of 0.378 enrichment R. As to B20, the binding signal was determined as 0.36 enrichment R.

Molecule B21 registered a binding signal of 2.31 enrichment R. B22 had a binding signal of 4.77 enrichment R.
